Test results reported in the supplement of paper PMC8728848.
Some of the results follow.

Key:
Experiment in all cases: glycan array binding signal (z-score within array); higher = stronger binding
Details in all cases: glycan notation: IUPAC condensed, linker removed
Fuc(a1-2)Gal = target: Fuc(a1-2)Gal
How it was run: (§1)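 Arrays were curated from the Consortium for Functional Glycomics database, 3228 in total, and kept only where the protein sequence was available. Binding is expressed as a within-array Z-score. This score was averaged across arrays of the same protein sequence at different concentrations or buffers and across linkers, and negative values can be read as non-binding.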

Fuc(a1-2)Gal(b1-3)GalNAc = target: Fuc(a1-2)Gal(b1-3)GalNAc
How it was run: as §1

[1] = target: Fuc(a1-2)Gal(b1-3)GalNAc(a1-3)[Fuc(a1-2)]Gal(b1-4)Glc
How it was run: as §1

[2] = target: Fuc(a1-2)Gal(b1-3)GalNAc(a1-3)[Fuc(a1-2)]Gal(b1-4)GlcNAc
How it was run: as §1

[3] = target: Fuc(a1-2)Gal(b1-3)GalNAc(b1-3)Gal
How it was run: as §1

[4] = target: Fuc(a1-2)Gal(b1-3)GalNAc(b1-3)Gal(a1-4)Gal(b1-4)Glc
How it was run: as §1

[5] = target: Fuc(a1-2)Gal(b1-3)GalNAc(b1-4)[Neu5Ac(a2-3)]Gal(b1-4)Glc
How it was run: as §1

Fuc(a1-2)Gal(b1-3)GlcNAc = target: Fuc(a1-2)Gal(b1-3)GlcNAc
How it was run: as §1

[6] = target: Fuc(a1-2)Gal(b1-3)GlcNAc(b1-2)Man(a1-3)[Fuc(a1-2)Gal(b1-3)GlcNAc(b1-2)Man(a1-6)]Man(b1-4)GlcNAc(b1-4)GlcNAc
How it was run: as §1

[7] = target: Fuc(a1-2)Gal(b1-3)GlcNAc(b1-2)Man(a1-3)[Fuc(a1-2)Gal(b1-3)GlcNAc(b1-2)Man(a1-6)]Man(b1-4)GlcNAc(b1-4)[Fuc(a1-6)]GlcNAc
How it was run: as §1

[8] = target: Fuc(a1-2)Gal(b1-3)GlcNAc(b1-3)Gal(b1-4)Glc
How it was run: as §1

[9] = target: Fuc(a1-2)Gal(b1-3)GlcNAc(b1-3)GalNAc
How it was run: as §1

[10] = target: Fuc(a1-2)Gal(b1-3)GlcNAc(b1-3)[Fuc(a1-3)[Gal(b1-4)]GlcNAc(b1-6)]Gal(b1-4)Glc
How it was run: as §1

[11] = target: Fuc(a1-2)Gal(b1-3)GlcNAc(b1-3)[Gal(b1-4)GlcNAc(b1-6)]Gal(b1-4)Glc
How it was run: as §1

[12] = target: Fuc(a1-2)Gal(b1-3)GlcNAc(b1-3)[Neu5Ac(a2-6)Gal(b1-4)GlcNAc(b1-6)]Gal(b1-4)Glc
How it was run: as §1

[13] = target: Fuc(a1-2)Gal(b1-3)[Fuc(a1-4)]GlcNAc
How it was run: as §1

[14] = target: Fuc(a1-2)Gal(b1-3)[Fuc(a1-4)]GlcNAc(b1-2)Man(a1-3)[Fuc(a1-2)Gal(b1-3)[Fuc(a1-4)]GlcNAc(b1-2)Man(a1-6)]Man(b1-4)GlcNAc(b1-4)GlcNAc
How it was run: as §1

[15] = target: Fuc(a1-2)Gal(b1-3)[Fuc(a1-4)]GlcNAc(b1-3)[Fuc(a1-3)[Gal(b1-4)]GlcNAc(b1-6)]Gal(b1-4)Glc
How it was run: as §1

[16] = target: Fuc(a1-2)Gal(b1-3)[Fuc(a1-4)]GlcNAc(b1-3)[Gal(b1-4)GlcNAc(b1-6)]Gal(b1-4)Glc
How it was run: as §1

Fuc(a1-2)Gal(b1-4)Glc = target: Fuc(a1-2)Gal(b1-4)Glc
How it was run: as §1

Fuc(a1-2)Gal(b1-4)Glc6S = target: Fuc(a1-2)Gal(b1-4)Glc6S
How it was run: as §1

Fuc(a1-2)Gal(b1-4)GlcNAc = target: Fuc(a1-2)Gal(b1-4)GlcNAc
How it was run: as §1

[17] = target: Fuc(a1-2)Gal(b1-4)GlcNAc(b1-2)Man(a1-3)[Fuc(a1-2)Gal(b1-4)GlcNAc(b1-2)Man(a1-6)]Man(b1-4)GlcNAc(b1-4)GlcNAc
How it was run: as §1

[18] = target: Fuc(a1-2)Gal(b1-4)GlcNAc(b1-2)Man(a1-3)[Fuc(a1-2)Gal(b1-4)GlcNAc(b1-2)Man(a1-6)]Man(b1-4)GlcNAc(b1-4)[Fuc(a1-6)]GlcNAc
How it was run: as §1

[19] = target: Fuc(a1-2)Gal(b1-4)GlcNAc(b1-2)[Fuc(a1-2)Gal(b1-4)GlcNAc(b1-4)]Man(a1-3)[Fuc(a1-2)Gal(b1-4)GlcNAc(b1-2)Man(a1-6)]Man(b1-4)GlcNAc(b1-4)GlcNAc
How it was run: as §1

[20] = target: Fuc(a1-2)Gal(b1-4)GlcNAc(b1-3)Gal(b1-4)GlcNAc
How it was run: as §1

[21] = target: Fuc(a1-2)Gal(b1-4)GlcNAc(b1-3)Gal(b1-4)GlcNAc(b1-3)Gal(b1-4)GlcNAc
How it was run: as §1

[22] = target: Fuc(a1-2)Gal(b1-4)GlcNAc(b1-3)GalNAc
How it was run: as §1

[23] = target: Fuc(a1-2)Gal(b1-4)GlcNAc(b1-3)[Fuc(a1-2)Gal(b1-4)GlcNAc(b1-6)]GalNAc
How it was run: as §1

[24] = target: Fuc(a1-2)Gal(b1-4)GlcNAc6S
How it was run: as §1

[25] = target: Fuc(a1-2)Gal(b1-4)[Fuc(a1-3)]GlcNAc
How it was run: as §1

[26] = target: Fuc(a1-2)Gal(b1-4)[Fuc(a1-3)]GlcNAc(b1-2)Man(a1-3)[Fuc(a1-2)Gal(b1-4)[Fuc(a1-3)]GlcNAc(b1-2)Man(a1-6)]Man(b1-4)GlcNAc(b1-4)GlcNAc
How it was run: as §1

[27] = target: Fuc(a1-2)Gal(b1-4)[Fuc(a1-3)]GlcNAc(b1-2)[Fuc(a1-2)Gal(b1-4)[Fuc(a1-3)]GlcNAc(b1-4)]Man(a1-3)[Fuc(a1-2)Gal(b1-4)[Fuc(a1-3)]GlcNAc(b1-2)Man(a1-6)]Man(b1-4)GlcNAc(b1-4)GlcNAc
How it was run: as §1

[28] = target: Fuc(a1-2)Gal(b1-4)[Fuc(a1-3)]GlcNAc(b1-3)Gal(b1-4)[Fuc(a1-3)]GlcNAc
How it was run: as §1

[29] = target: Fuc(a1-2)Gal(b1-4)[Fuc(a1-3)]GlcNAc(b1-3)Gal(b1-4)[Fuc(a1-3)]GlcNAc(b1-3)Gal(b1-4)[Fuc(a1-3)]GlcNAc
How it was run: as §1

[30] = target: Fuc(a1-2)Gal(b1-4)[Fuc(a1-3)]GlcNAc(b1-3)GalNAc
How it was run: as §1

Fuc(a1-2)Gal6S(b1-4)Glc = target: Fuc(a1-2)Gal6S(b1-4)Glc
How it was run: as §1

[31] = target: Fuc(a1-2)Gal6S(b1-4)Glc6S
How it was run: as §1

[32] = target: Fuc(a1-2)Gal6S(b1-4)GlcNAc
How it was run: as §1

Fuc(a1-2)GlcNAc = target: Fuc(a1-2)GlcNAc
How it was run: as §1

Fuc(a1-2)[Gal(a1-3)]Gal = target: Fuc(a1-2)[Gal(a1-3)]Gal
How it was run: as §1

[33] = target: Fuc(a1-2)[Gal(a1-3)]Gal(b1-3)GalNAc
How it was run: as §1

[34] = target: Fuc(a1-2)[Gal(a1-3)]Gal(b1-3)GlcNAc
How it was run: as §1

[35] = target: Fuc(a1-2)[Gal(a1-3)]Gal(b1-3)GlcNAc(b1-2)Man(a1-3)[Fuc(a1-2)[Gal(a1-3)]Gal(b1-3)GlcNAc(b1-2)Man(a1-6)]Man(b1-4)GlcNAc(b1-4)GlcNAc
How it was run: as §1

[36] = target: Fuc(a1-2)[Gal(a1-3)]Gal(b1-3)GlcNAc(b1-2)Man(a1-3)[Fuc(a1-2)[Gal(a1-3)]Gal(b1-3)GlcNAc(b1-2)Man(a1-6)]Man(b1-4)GlcNAc(b1-4)[Fuc(a1-6)]GlcNAc
How it was run: as §1

B1: ConA (Canavalia ensiformis), P02866 (protein)
chain: MAISKKSSLFLPIFTFITMFLMVVNKVSSSTHETNALHFMFNQFSKDQKDLILQGDATTGTDGNLELTRVSSNGSPQGSSVGRALFYAPVHIWESSAVVASFEATFTFLIKSPDSHPADGIAFFISNIDSSIPSGSTGRLLGLFPDANVIRNSTTIDFNAAYNADTIVAVELDTYPNTDIGDPSYPHIGIDIKSVRSKKTAKWNMQNGKVGTAHIIYNSVDKRLSAVVSYPNADSATVSYDVDLDNVLPEWVRVGLSASTGLYKETNTILSWSFTSKLKSNEIPDIATVV
**Q.** For B1, which “glycan array binding signal (z-score)” value (Fuc(a1-2)Gal) is on record?
**A.** -0.274

**Q.** What about the “glycan array binding signal (z-score)” value (Fuc(a1-2)Gal(b1-3)GalNAc) of the same binder?
**A.** -0.261

**Q.** What about the “glycan array binding signal (z-score)” value [1] of the same binder?
**A.** -0.17

**Q.** And the “glycan array binding signal (z-score)” value [2]?
**A.** -0.214

**Q.** What about the “glycan array binding signal (z-score)” value [3] of the same binder?
**A.** -0.288

**Q.** What about the “glycan array binding signal (z-score)” value [4] of the same binder?
**A.** -0.286

**Q.** What about the “glycan array binding signal (z-score)” value [5] of the same binder?
**A.** -0.261

**Q.** And the “glycan array binding signal (z-score)” value (Fuc(a1-2)Gal(b1-3)GlcNAc)?
**A.** -0.286

**Q.** And the “glycan array binding signal (z-score)” value [6]?
**A.** -0.103

**Q.** And the “glycan array binding signal (z-score)” value [7]?
**A.** -0.028

**Q.** And the “glycan array binding signal (z-score)” value [8]?
**A.** -0.263

**Q.** And the “glycan array binding signal (z-score)” value [9]?
**A.** -0.158

**Q.** What about the “glycan array binding signal (z-score)” value [10] of the same binder?
**A.** -0.244

**Q.** What about the “glycan array binding signal (z-score)” value [11] of the same binder?
**A.** -0.259

**Q.** And the “glycan array binding signal (z-score)” value [12]?
**A.** -0.189

**Q.** What about the “glycan array binding signal (z-score)” value [13] of the same binder?
**A.** -0.294

**Q.** And the “glycan array binding signal (z-score)” value [14]?
**A.** 0.032

**Q.** What about the “glycan array binding signal (z-score)” value [15] of the same binder?
**A.** -0.22

**Q.** And the “glycan array binding signal (z-score)” value [16]?
**A.** -0.225

**Q.** What about the “glycan array binding signal (z-score)” value (Fuc(a1-2)Gal(b1-4)Glc) of the same binder?
**A.** -0.3

**Q.** What about the “glycan array binding signal (z-score)” value (Fuc(a1-2)Gal(b1-4)Glc6S) of the same binder?
**A.** -0.185

**Q.** What about the “glycan array binding signal (z-score)” value (Fuc(a1-2)Gal(b1-4)GlcNAc) of the same binder?
**A.** -0.303

**Q.** And the “glycan array binding signal (z-score)” value [17]?
**A.** -0.207

**Q.** And the “glycan array binding signal (z-score)” value [18]?
**A.** -0.098

**Q.** What about the “glycan array binding signal (z-score)” value [19] of the same binder?
**A.** -0.138

**Q.** What about the “glycan array binding signal (z-score)” value [20] of the same binder?
**A.** -0.229

**Q.** What about the “glycan array binding signal (z-score)” value [21] of the same binder?
**A.** -0.221

**Q.** And the “glycan array binding signal (z-score)” value [22]?
**A.** -0.078

**Q.** And the “glycan array binding signal (z-score)” value [23]?
**A.** -0.139

**Q.** And the “glycan array binding signal (z-score)” value [24]?
**A.** -0.217

**Q.** What about the “glycan array binding signal (z-score)” value [25] of the same binder?
**A.** -0.247

**Q.** And the “glycan array binding signal (z-score)” value [26]?
**A.** -0.056

**Q.** What about the “glycan array binding signal (z-score)” value [27] of the same binder?
**A.** -0.138

**Q.** And the “glycan array binding signal (z-score)” value [28]?
**A.** -0.256

**Q.** And the “glycan array binding signal (z-score)” value [29]?
**A.** 0.073

**Q.** What about the “glycan array binding signal (z-score)” value [30] of the same binder?
**A.** 0.191

**Q.** And the “glycan array binding signal (z-score)” value (Fuc(a1-2)Gal6S(b1-4)Glc)?
**A.** -0.254

**Q.** What about the “glycan array binding signal (z-score)” value [31] of the same binder?
**A.** -0.251

**Q.** And the “glycan array binding signal (z-score)” value [32]?
**A.** -0.247

**Q.** What about the “glycan array binding signal (z-score)” value (Fuc(a1-2)GlcNAc) of the same binder?
**A.** -0.125

**Q.** What about the “glycan array binding signal (z-score)” value (Fuc(a1-2)[Gal(a1-3)]Gal) of the same binder?
**A.** -0.265

**Q.** And the “glycan array binding signal (z-score)” value [33]?
**A.** -0.193

**Q.** And the “glycan array binding signal (z-score)” value [34]?
**A.** -0.213

**Q.** And the “glycan array binding signal (z-score)” value [35]?
**A.** -0.079

**Q.** And the “glycan array binding signal (z-score)” value [36]?
**A.** -0.094
